From the supplement of paper PMC11417369
± gives the standard deviation of the averaged measurements. Some of the results follow.

Tested on: PfAP2-G AP2 domain (GST-tagged)
Assay: gcPBM binding intensity (ln(normalized median fluorescence intensity)); higher = stronger DNA binding
Procedure, shortened: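 Binding intensity is defined as the maximum Masliner-normalised natural-log median intensity across replicate spots for either probe orientation. It was measured on an Agilent 4 × 180k array of primer-extended double-stranded 36-bp intergenic genomic probes and negative controls, to which GST-tagged P. falciparum DNA-binding domains made in E. coli were applied for 1 h in 1× PBS with 1% milk, 0.2 mg/ml BSA, 0.5% salmon testes DNA and 0.03% Triton X-100. Detection was by Alexa488 anti-GST antibody and scanning at 488 nm.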

“TTTTAAATATGAACATGTACATGTAAATTTACATGT [XGTACX_site4573]” and “AATAATATATTTAGGGGTACATAATAATATATTTTA [XGTACX_site8366]” are within error of each other in “gcPBM binding intensity (ln)” value: 11.2 ± 0.76 for the first, 11.6 ± 1.1 for the second.

Going from “AAAAATAGAATAAATACACACCCGTGTAACGGATTT [CACACA_site3372]” to “TAAACATTTGGCTGATGTACTTGCTACCTTAAATCA [XGTACX_site5514]”, the “gcPBM binding intensity (ln)” value rises from 9.63 ± 0.29 to 11.1 ± 0.59.

“ATTTTTGTGTATTAATGTACTTTATGCATATTTGAC [XGTACX_site3353]” and “TTTTAATTTATTAATTGTACATGTATTTTAAGATTA [XGTACX_site8417]” are within error of each other in “gcPBM binding intensity (ln)” value: 11.2 ± 0.73 for the first, 11 ± 0.63 for the second.

“TTATTATTAAAAAAAAGTACAGAATTGAATAATACA [XGTACX_site651]” and “TATTTTTATAAGTAAAAGGAGCACAGTTAAAGGATC [XGTACX_negctrl_site362]” are within error of each other in “gcPBM binding intensity (ln)” value: 11.5 ± 0.95 for the first, 10.6 ± 0.47 for the second.

First: TATAAATAAAGATATACACACATATAAATATTTTTC [CACACA_site7798]
Second: TTGGTCTTTTAAAAAAGTACAAAAAAAAAAAAAAAA [XGTACX_site1665]
The “gcPBM binding intensity (ln)” value of the first is lower: 9.78 ± 0.099 for the first, 11.2 ± 1 for the second.

First: TAGTATTAGATATATACACACATATATACCTATAGA [CACACA_site7083]
Second: GATAAATTAAGACACACACACATATATTTATTTATA [CACACA_site7789]
The “gcPBM binding intensity (ln)” value of the first is lower: 9.795 ± 0.078 for the first, 10.1 ± 0.2 for the second.

AAAAAAGAACGCATAGTGCATATCTAAAAGATTTTT and “TATAAAAAAATATTATAATATATATATATATATATA [XGTACX_negctrl_site41]” are within error of each other in “gcPBM binding intensity (ln)” value: 9.85 ± 0.014 for the first, 9.77 ± 0.45 for the second.

Going from “AATATTTATATTTACACACACATAATACATCTATGT [CACACA_site4187]” to “TTACGATCATCAATATGTACATATATATATATATAT [XGTACX_site4301]”, the “gcPBM binding intensity (ln)” value rises from 10 ± 0.014 to 11.1 ± 0.61.

Compared with “ATTTTTTTTTTTATAGTGGATCCACATTTGCCATTT [CACACA_negctrl_site1106]”, “ATATATATATATATATGTACATACTATACAATAATT [XGTACX_site3546]” is higher in “gcPBM binding intensity (ln)” value: 10.4 ± 0.35 for the first, 11.3 ± 0.48 for the second.

Compared with “ATTATTATTAAATACACACACATACCTCCATGTTAG [CACACA_site3430]”, “AACAGATAAAAGGGTACACACATATATACAAGTACA [CACACA_site7959]” is higher in “gcPBM binding intensity (ln)” value: 10.1 ± 0.13 for the first, 11.7 ± 0.83 for the second.

Going from “TATATAGATATGATAGTGCATTTTTAGAAAACATAA [GTGCAC_site9962]” to “TTATGTAGCTAGCTATAAACTTTTTTTTATTTAAAA [CACACA_negctrl_site1297]”, the “gcPBM binding intensity (ln)” value falls from 10 ± 0.14 to 9.7 ± 0.057.

“AGAACTTTTAATGGATGTACAGTTATTTTATTATTT [XGTACX_site6226]” and “ATATAGTAAATTGGTAGTACATAAAATGATTTTATG [XGTACX_site4143]” are within error of each other in “gcPBM binding intensity (ln)” value: 11.1 ± 0.32 for the first, 11.6 ± 0.95 for the second.

First: GATATAATTATGTGTACACAATTTTTTTTTTTTTTT [CACACA_site4501]
Second: AAATAAAGGAAATAAAAAGAAACCAATTTCGAATAT [CACACA_negctrl_site953]
The “gcPBM binding intensity (ln)” value of the first is higher: 11.7 ± 0.87 for the first, 9.86 ± 0.18 for the second.

“ATATGTATGTATAATCGTACAAAATTTGGCGATCTT [XGTACX_site8698]” and “TTTATATGTATTAATTGTACACATATAATGTGTTTT [XGTACX_site3064]” are within error of each other in “gcPBM binding intensity (ln)” value: 10.9 ± 0.55 for the first, 11.3 ± 0.78 for the second.

First: TTTTTTTTAAAACTATGTACGTAAAAATTGTAGTTT [XGTACX_site2302]
Second: CGAAAAAGTGATATAGTGCAAAATTTTCATTTCTCT
The “gcPBM binding intensity (ln)” value of the first is higher: 11.7 ± 0.91 for the first, 9.84 ± 0.014 for the second.

Compared with “AAAAAAAAAACATACACACATACATACATATATATT [CACACA_site949]”, “ATGAAGAATTTATATTGTACCCATTTTTATGTAAAT [XGTACX_site2528]” is higher in “gcPBM binding intensity (ln)” value: 9.78 for the first, 11.4 ± 0.93 for the second.

“AAGAATAAGAAGAAGGATCCCCTTCAAAAAAAAAAA [TGCATGCA_negctrl_site525]” and “TTGTTATTATATTACGCATGCATCATTTATTTGCAC [TGCATGCA_site525]” are within error of each other in “gcPBM binding intensity (ln)” value: 9.89 ± 0.28 for the first, 10.1 ± 0.064 for the second.

“AAAGGGAATTATGGCTGTACGCATTTTATAAATAGC [XGTACX_site5878]” and “TGCTGTATATTTTTCTGTACACATTTATATATTCCA [XGTACX_site6244]” are the same in “gcPBM binding intensity (ln)” value: 11.6 ± 0.89 for the first, 11.6 ± 0.87 for the second.

Compared with “TTTTTTTTTCTTCTTTTCAAATTTAAGAAATTATAA [CACACA_negctrl_site18]”, “AATATTTTTGTCGTTAGTACATAAAAAATAATAATA [XGTACX_site3074]” is higher in “gcPBM binding intensity (ln)” value: 9.83 ± 0.28 for the first, 11.2 ± 0.76 for the second.

“CAAACAAACGAACACACACACACACGCAAAAATGAT [CACACA_site7194]” and “ATAATTAAAATGCTCACACACATAAAAAAAAATTAA [CACACA_site2149]” are within error of each other in “gcPBM binding intensity (ln)” value: 10.3 ± 0.35 for the first, 10.1 ± 0.31 for the second.

First: AATAATAAAGTGAACACACACATATAATATATATAT [CACACA_site4143]
Second: AAAAATTGAATTTTTTTTTTTTTTTTGAGAAGGAAA [CACACA_negctrl_site1196]
The “gcPBM binding intensity (ln)” value of the first is higher: 9.99 ± 0.26 for the first, 9.53 ± 0.057 for the second.

First: ATAATTTTATCATATATATATATATATAAATACTTA [CACACA_negctrl_site743]
Second: ATGCTTTTATGCACACGTACAAAAATATTATATAAT [XGTACX_site5589]
The “gcPBM binding intensity (ln)” value of the first is lower: 9.78 ± 0.14 for the first, 11.1 ± 0.67 for the second.

With “ATAAATTAACATTAAAGTACATTTTAATAAATATTA [XGTACX_site3647]” the “gcPBM binding intensity (ln)” value was 10.9 ± 0.77.
